The whole screen tested about 310,000 compounds, of which about 2,200 (0.71%) showed an effect of 50% or more. Effects have a minus sign here. The list shows a part of the results.
target: human ether-à-go-go-related gene (hERG) potassium channel (human, UniProt Q12809); test: primary screen, population patch clamp on CHO cells stably expressing hERG
Sequence (Q12809 whole entry, looked up): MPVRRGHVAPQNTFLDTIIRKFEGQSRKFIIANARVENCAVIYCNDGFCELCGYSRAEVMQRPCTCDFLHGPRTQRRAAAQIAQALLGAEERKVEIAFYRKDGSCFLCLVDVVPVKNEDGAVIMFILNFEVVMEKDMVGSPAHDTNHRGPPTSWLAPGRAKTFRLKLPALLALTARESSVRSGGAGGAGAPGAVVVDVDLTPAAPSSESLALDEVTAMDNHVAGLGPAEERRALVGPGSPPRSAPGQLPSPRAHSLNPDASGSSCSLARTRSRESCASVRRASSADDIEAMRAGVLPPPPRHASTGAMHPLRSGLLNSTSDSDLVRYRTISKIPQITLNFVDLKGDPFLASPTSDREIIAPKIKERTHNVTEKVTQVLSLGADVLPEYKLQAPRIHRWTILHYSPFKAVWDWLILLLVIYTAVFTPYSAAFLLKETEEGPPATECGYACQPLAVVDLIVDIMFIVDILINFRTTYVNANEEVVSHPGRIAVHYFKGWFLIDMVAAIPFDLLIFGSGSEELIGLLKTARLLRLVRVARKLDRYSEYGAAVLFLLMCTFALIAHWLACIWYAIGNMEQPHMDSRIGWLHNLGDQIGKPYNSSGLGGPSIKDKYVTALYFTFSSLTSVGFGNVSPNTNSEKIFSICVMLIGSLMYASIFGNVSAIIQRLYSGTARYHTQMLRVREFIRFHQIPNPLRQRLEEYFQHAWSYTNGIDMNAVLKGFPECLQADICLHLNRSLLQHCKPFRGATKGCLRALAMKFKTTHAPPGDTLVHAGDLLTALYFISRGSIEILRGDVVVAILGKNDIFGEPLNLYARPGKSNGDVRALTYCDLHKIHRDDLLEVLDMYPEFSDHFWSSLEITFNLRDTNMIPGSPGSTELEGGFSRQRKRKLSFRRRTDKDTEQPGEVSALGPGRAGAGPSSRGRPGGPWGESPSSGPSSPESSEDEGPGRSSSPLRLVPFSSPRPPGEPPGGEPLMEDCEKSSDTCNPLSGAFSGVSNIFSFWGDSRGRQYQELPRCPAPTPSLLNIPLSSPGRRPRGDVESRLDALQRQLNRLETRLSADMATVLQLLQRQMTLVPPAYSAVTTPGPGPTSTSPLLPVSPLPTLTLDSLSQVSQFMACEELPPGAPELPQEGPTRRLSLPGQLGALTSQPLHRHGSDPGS

SMILES | hERG current change (%, negative = inhibition) at 1uM
Cc1cc(C(=O)N2CCc3ccccc3C2)on1 | 6.25%
O=C(NNC(=O)c1sccc1-n1cccc1)c1ccc(Cl)cc1 | 8.21%
O=C(c1ccc2ccccc2n1)N1CCN(c2ccccc2Cl)CC1 | -3.11%
CCOC(=O)C1CCCN(C(=O)c2ccc(Cn3c(=S)[nH]c4cc(C(=O)OC)ccc4c3=O)cc2)C1 (stereo not drawn) | 11.2%
CS(=O)(=O)O.Cc1ccc(N(CC2=NCCN2)c2cccc(O)c2)cc1 | -10.3%
COc1ccc(/C=N/NC(=O)CCC(=O)Nc2ccc(F)cc2)c(OC)c1 | 8.61%
CCOc1ccc2nc(SCC(=O)NC3CCCCC3)[nH]c2c1 | 9.17%
O=C1CN(C(=O)c2ccc(Br)o2)C(c2ccc(F)cc2)c2cc(F)ccc2N1 (stereo not drawn) | -2.83%
Cc1nc(N)c(CC(Br)CBr)c(Cl)n1 (stereo not drawn) | 14.1%
COc1ccc(-c2oc(=O)n(C)c2-c2ccc(OC)cc2)cc1 | 1.64%
CC(CCc1ccccc1)NC(=O)c1cccc(F)c1 (stereo not drawn) | 14.2%
O=[N+]([O-])c1ccc2nc(-c3ccncc3)[nH]c2c1 | -3.78%
CC(C)=CC(O)C/C(C)=C/COc1ccc2ccc(=O)oc2c1 (stereo not drawn) | 9.5%
O=S(=O)(Nc1ncccn1)c1ccc(NC(=S)Nc2ccccc2)cc1 | 13.1%
O=C(Nc1cnn(Cc2ccc(F)cc2)c1)c1cc(-c2ccco2)on1 | 8.5%
COc1ccc(-n2c(O)c(C=Nc3c(C)n(C)n(-c4ccccc4)c3=O)c(=O)[nH]c2=O)cc1 | 3.68%
CSC1=NS(=O)(=O)c2c(C)nn(C)c2S1 | 13.8%
CN(C)S(=O)(=O)n1cc(/C=C(\NC(=O)c2ccccc2F)C(=O)N2CCCC2)c2ccccc21 | 12.3%
Cc1sc2c(c1C)c(=O)n(-c1ccccc1)c1nncn21 | 11.8%
COC(CNC(=O)c1coc2nc3ccccc3nc12)OC | 13.7%
CCn1c(=O)c(C(=O)Nc2ccsc2C(=O)OC)c(O)c2ccccc21 | 14.5%
COc1cc2cc[n+](Cc3ccc([N+](=O)[O-])cc3)cc2cc1OC.[Cl-] | -7.7%
CCCCC(CC)C(=O)Nc1ccc(S(=O)(=O)Nc2nccs2)cc1 (stereo not drawn) | 15.6%

SMILES | hERG current change (%, negative = inhibition) at 1uM
CCn1c(SCc2nc(-c3ccccc3)no2)nc2ccccc21 | -5.48%
CC(C)(C)c1csc(NNC(=O)c2ccc(Cl)cc2)n1 | 13.8%
Cc1cc(C)c(C)c(OCC(=O)O/N=C(\N)c2ccncc2)c1 | 1.5%
Cc1ccc(C(=O)CN(CCCC(N)=O)C(=O)c2ccncc2)cc1 | 17.2%
COc1ccc(CNC(=O)CNC(=O)c2sc3ccccc3c2Cl)cc1OC | 16%
Cc1cc(C)nc(N/N=C/C=C/c2ccccc2)n1 | 2.04%
Cc1ccc(NC(=O)N2CCCn3c(SCC(=O)c4ccccc4)nnc32)cc1 | 9.94%
O=C(CN1C(=O)NC2(CCCCC2)C1=O)NCc1cccs1 | 1.94%
Cn1c(SCc2cccc(C#N)c2)nc2ccccc2c1=O | 16.8%
Cc1nc2ccccc2nc(=O)c1NNc1ccc([N+](=O)[O-])cc1 | 8.1%
Cc1nc(NC(=O)Nc2ccc(Cl)cc2)sc1C | 13.2%
CN(C)S(=O)(=O)c1cccc(NC(=O)COC(=O)COc2ccccc2[N+](=O)[O-])c1 | 14.5%
CC(=O)Nc1ccc(NC(=O)CSc2ccc3nnc(CCNC(=O)c4ccccc4)n3n2)cc1 | -0.725%
COc1ccc(N2C(=O)NC(NC(=O)C(C)(C)C)(C(F)(F)F)C2=O)cc1 (stereo not drawn) | 12.3%
Cc1ccc(CNC(=O)c2ccc(NC(=O)C3=CSCCO3)cc2)cc1 | 2.4%
Cc1nc2ncnn2c(Nc2ccc3c(c2)OCO3)c1Cc1ccccc1 | -26.8%
O=C(COc1coc(CN2CCN(c3cccc(Cl)c3)CC2)cc1=O)NC1CCCC1 | 3.81%
Cc1cc2ccccc2c(=O)n1CC(=O)Nc1ccc2c(c1)OCO2 | 11.1%
CC(=O)Nc1ccc(/C(C)=N/NC(=O)c2ccncc2)cc1 | 6.26%
CCCn1c(N)c(C(=O)CN(C)CC(=O)Nc2c(Cl)cccc2Cl)c(=O)[nH]c1=O | 0.55%
NC(=O)Cn1nc2sc3ccccc3n2c(=O)c1=O | 14.6%
CCOC(=O)c1oc2nc3c(cc2c1N)CCCC3 | 10.4%

Reference: article PMC4336329 (PLoS ONE, 2015)
